In the supplement of paper PMC3334620:
Whole data set: some 33,000 sequences, median “E-score (-0.5 to 0.5)” near -0.013, cut for the highest 2% near 0.3. The list shows a part of the results.

Molecular target: T1, Msn1 (UniProt P22148)
T1 sequence: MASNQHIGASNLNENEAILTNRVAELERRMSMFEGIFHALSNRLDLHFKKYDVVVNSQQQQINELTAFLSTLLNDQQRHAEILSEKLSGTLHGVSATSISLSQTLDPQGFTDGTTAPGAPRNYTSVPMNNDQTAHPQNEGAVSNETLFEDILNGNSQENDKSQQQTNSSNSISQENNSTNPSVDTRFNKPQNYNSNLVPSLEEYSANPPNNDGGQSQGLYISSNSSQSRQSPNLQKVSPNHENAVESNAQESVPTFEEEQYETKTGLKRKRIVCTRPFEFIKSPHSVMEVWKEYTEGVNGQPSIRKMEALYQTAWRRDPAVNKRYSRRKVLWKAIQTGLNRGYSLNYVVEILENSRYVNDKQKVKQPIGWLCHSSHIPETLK
Experiment: PBM E-score (8-mer binding enrichment) (E-score (-0.5 to 0.5)); higher = stronger / more preferred TF binding; most listed sequences are background and not binding sites
Conditions: protein concentration: 200 nM; construct: GST-full length
Method in brief: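 For each ungapped eight-base word taken together with its reverse complement, the Universal PBM Analysis Suite assigned an E-score. Binding data came from GST-tagged yeast transcription factors, applied at about 100-200 nM, on universal all-10-mer Agilent arrays made double-stranded by primer extension. Fluorescent anti-GST marked bound protein, and scans were normalised with masliner.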

| Sequence | PBM E-score |
| --- | --- |
| CATGATCG | -0.0605 |
| GCCCCAGA | -0.165 |
| CATAACTC | -0.00091 |
| CAGGCAAC | -0.118 |
| AGCCTACC | -0.171 |
| AATATACG | -0.054 |
| GCAATAAA | 0.241 |
| CGTGTCGA | 0.0442 |
| ACACGGGA | 0.0215 |
| AACCGACA | 0.17 |
| CAATTTGG | 0.0773 |
| CGTACCGC | -0.136 |
| CTCCCACA | -0.147 |
| GCTTGTCA | 0.209 |
| CACGTATG | -0.0734 |
| CGGAATCA | 0.0532 |
| AAATGGAG | 0.0334 |
| GGCCTTCA | 0.0223 |
| ATCGGCAC | 0.0175 |
| CTATGGGC | -0.106 |
| ACCACCCT | -0.22 |
| GCCCGGGA | 0.0521 |
| CCCCGCGC | -0.284 |
| AACACTTC | -0.0636 |
| GCGCTGAC | 0.0228 |

| Sequence | PBM E-score |
| --- | --- |
| CTGCACCC | -0.108 |
| CTATTTTC | 0.122 |
| CGAGGAAA | -0.0297 |
| ATGACGGC | -0.111 |
| CATCCCAG | -0.123 |
| ATGGTCAA | 0.175 |
| CGCAGACA | 0.323 |
| CATAGTGA | -0.00964 |
| ATATTCCA | 0.212 |
| CATATACA | 0.249 |
| GGATGCCC | -0.262 |
| ACCGAGCT | -0.0607 |
| CTAGGTAC | 0.0565 |
| ATAACTCC | -0.0864 |
| AAATCCTC | -0.19 |
| TCGTTGAA | 0.0434 |
| AAAAGTCA | 0.194 |
| CGCTAAAG | 0.0332 |
| AAGGTACA | 0.166 |
| ACTTGTGC | -0.14 |
| CAAAGAGA | -0.0521 |
| CAGCAGAG | -0.279 |
| AAGCGTCC | -0.134 |
| AGATATGC | 0.0144 |
| GCTGGCCC | -0.389 |

| Sequence | PBM E-score |
| --- | --- |
| CTTTACAC | 0.16 |
| GGATTTGA | -0.0389 |
| CGTCCCCA | 0.0173 |
| CCGCTATC | -0.0822 |
| CTCTGCAC | -0.246 |
| AATACGCC | 0.104 |
| AAAGCACT | -0.0831 |
| GGGAATAA | 0.0508 |
| ATAAAAAG | 0.224 |
| AAAGCGAC | 0.108 |
| CCTATACA | 0.0727 |
| CCATCGCC | -0.135 |
| CACGGTGC | -0.0861 |
| ACGACCCG | -0.0166 |
| ACGGGGGA | -0.162 |
| CATTATCG | 0.0557 |
| ATCGGTCA | 0.0243 |
| ACAAGGAT | 0.108 |
| GAATAATA | 0.129 |
| GACGGTTA | -0.198 |
| CTGGTGAA | -0.201 |
| ACGGAACC | 0.162 |
| CTACGTAC | 0.135 |
| ACAGATAC | 0.256 |
| GTACAGCA | -0.104 |

| Sequence | PBM E-score |
| --- | --- |
| ATACACAT | 0.0536 |
| AGCCTAGG | -0.172 |
| AATTCGGT | 0.215 |
| ACCTTAAA | -0.0187 |
| AGGTTTTC | 0.135 |
| GGCATCAC | -0.121 |
| GGTATCAC | -0.124 |
| ACGATTGC | 0.0068 |
| ACTTAATC | 0.0948 |
| GTCACCTA | -0.0908 |
| GTCAGTCA | 0.141 |
| CTGTATAC | 0.153 |
| GTCAAGAA | 0.0556 |
| ATTGTGAC | 0.284 |
| ATTTAAAA | 0.13 |
| GGGACCTA | 0.0296 |
| AGAGTCTA | -0.221 |
| CGCACACG | -0.112 |
| CCCAAGTA | -0.122 |
| CCCGGCAC | -0.174 |
| AATCAAGG | 0.0406 |
| CTAGCAGA | -0.0824 |
| CTGAGGGA | -0.253 |
| GCAGTTTA | -0.0109 |
| GTACGCAA | -0.00186 |

| Sequence | PBM E-score |
| --- | --- |
| TAGAAGCA | -0.229 |
| AGGTGTTG | -0.148 |
| TCATTCAA | 0.207 |
| GGAGTGAA | -0.189 |
| GTGTCGGA | 0.0876 |
| AACCATAA | 0.0654 |
| ACCGCACC | -0.182 |
| AGCACCGC | -0.193 |
| AGCTGAAG | -0.09 |
| CGAACCTC | -0.0905 |
| AACGGTGC | -0.127 |
| ACTGGGCC | -0.0731 |
| CAATAATA | 0.242 |
| CCCAAACC | -0.0128 |
| CAGCCTTA | -0.122 |
| AAGTGGAA | -0.0507 |
| GCGAGACA | 0.102 |
| CAATCATC | -0.0137 |
| AGTTCTGG | 0.0333 |
| ACCATGCA | 0.0412 |
| CAATCATG | 0.106 |
| GATTCGCA | 0.0379 |
| ACCGCCAT | -0.157 |
| AAGCCCAC | -0.203 |
| CTTCGCCA | -0.294 |

| Sequence | PBM E-score |
| --- | --- |
| GATTACCC | 0.12 |
| GATAGGCC | -0.125 |
| CAAAATCG | 0.216 |
| ACGTCCCG | 0.0295 |
| CCTAAGGC | -0.164 |
| GACCCGAA | 0.12 |
| CGGATCCC | -0.214 |
| AGACTTGC | -0.136 |
| ACGCGTCC | 0.13 |
| AGCATTTA | 0.0227 |
| CTGGCAGC | -0.271 |
| CTGGCCGA | -0.289 |
| ACAATGGC | 0.121 |
| GTACTGAA | 0.275 |
| CGAGATCC | 0.135 |
| ACAAGCTG | 0.0701 |
| AGGAGGTG | -0.306 |
| ATCGAGAA | 0.0941 |
| CACCTAAA | -0.0468 |
| AAGCAGTA | -0.139 |
| GCGTAGCC | -0.311 |
| CATGGTCA | 0.117 |
| CAAGCGCG | -0.0339 |
| GGCTAATA | 0.0752 |
| AGAAAGGG | -0.149 |

| Sequence | PBM E-score |
| --- | --- |
| CGCTTTGC | -0.0344 |
| GTCTTCTA | 0.11 |
| CTAATTCC | 0.209 |
| AGTCACGG | 0.0784 |
| AGGCGCAT | -0.0528 |
| CACACGCC | 0.0586 |
| ACCCATTC | -0.0687 |
| GGGGGCCA | -0.416 |
| ATTACTAA | 0.116 |
| ACATGCTG | 0.139 |
| ATACTATG | 0.137 |
| CATGATTC | -0.0643 |
| GTCAGAAA | -0.0732 |
| ACACAACC | 0.1 |
| AATAAAAC | 0.189 |
| GGCAAGTA | 0.0176 |
| ATAATGGA | 0.155 |
| CGTGCAGC | -0.0365 |
| CGAAGTGC | 0.0297 |
| GTATTCCA | 0.0881 |
| TTACTAAA | 0.199 |
| CCTAGGCG | -0.158 |
